The values that follow come from the supplement of paper PMC8285479.

Molecules are shown by their SMILES. Structures can show the parent of a compound that is named as a salt. ± gives the standard deviation of the averaged measurements. The full ranking holds about 1,900 compounds; the median of “normalised cell viability (NPI; 0 = phenylarsine oxide control, 1 = DMSO control)” is about 1, and the lowest 2% start at about 0.039. The list shows a part of the results.

This assay deals with NCI-H1944. As to the kind of experiment: normalised cell viability (NPI; 0 = phenylarsine oxide control, 1 = DMSO control) (fraction of DMSO control); NCI-H1944 is a non-small cell lung cancer line; higher = more viable cells (less compound toxicity). Conditions: 6 days.
The mark [1] stands for this setting: glucocorticoid arm: hydrocortisone 2.75 uM co-treatment, compound 1 µM.
Setting [2] is: glucocorticoid arm: hydrocortisone 2.75 uM co-treatment, compound 5 µM.
Setting [3] is: glucocorticoid arm: hydrocortisone 2.75 uM pre-treated 2 days and continued, compound 1 µM.
[4] abbreviates: glucocorticoid arm: hydrocortisone 2.75 uM pre-treated 2 days and continued, compound 5 µM.
[5] abbreviates: glucocorticoid arm: vehicle, compound 1 µM.
Setting [6] is: glucocorticoid arm: vehicle, compound 5 µM.
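Note: CTB read-out in 384-well plates, mean of triplicate wells, normalised per plate against 1 µM phenylarsine oxide and 0.1% DMSO, compounds added 24 h after seeding.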

Take `O=C1NC(=O)/C(=C/c2ccc(-c3ccc(F)cc3O)o2)S1`: the normalised cell viability reads like this: under setting [1], 0.991 ± 0.016; under setting [2], 1.01 ± 0.01; under setting [3], 1 ± 0.019; under setting [4], 0.955 ± 0.039; under setting [5], 1.003 ± 0.0064; under setting [6], 1.02 ± 0.01.
In the case of `Cc1cnc(Nc2ccc(N3CCN(C)CC3)cc2)nc1Nc1cccc(S(=O)(=O)NC(C)(C)C)c1`, the normalised cell viability was determined as 0.767 ± 0.068 under setting [1]; 0.425 ± 0.093 under setting [2]; 0.815 ± 0.082 under setting [3]; 0.562 ± 0.13 under setting [4]; 0.923 ± 0.041 under setting [5]; 0.138 ± 0.042 under setting [6].
Turning to `CCCCC(=O)OCC(=O)[C@]1(O)Cc2c(O)c3c(c(O)c2[C@@H](O[C@H]2C[C@H](NC(=O)C(F)(F)F)[C@H](O)[C@H](C)O2)C1)C(=O)c1c(OC)cccc1C3=O` [Valrubicin], the normalised cell viability came out at 0.665 ± 0.04 under setting [1]; 0.868 ± 0.016 under setting [2]; 0.973 ± 0.016 under setting [3]; 0.982 ± 0.017 under setting [4]; 0.228 ± 0.017 under setting [5]; 0.374 ± 0.0045 under setting [6].
On to `COc1ccc(CCN(C)CCc2ccc(OC)c(OC)c2)cc1OC` [YS-035 hydrochloride], for which the normalised cell viability turned out to be 1.013 ± 0.0058 under setting [1]; 1.02 ± 0.015 under setting [2]; 1.01 ± 0.023 under setting [3]; 1.023 ± 0.0058 under setting [4]; 1.007 ± 0.0058 under setting [5]; 1.01 ± 0.012 under setting [6].
In the case of `CC[N+](CC)(CC)CC` [Tetraethylammonium chloride], the normalised cell viability under setting [1] was 1.013 ± 0.0058; the normalised cell viability under setting [2] came out at 1.02 ± 0.018; the normalised cell viability under setting [3] came to 1.03 ± 0.026; the normalised cell viability under setting [4] came out at 1.017 ± 0.0058; the normalised cell viability under setting [5] is 1.002 ± 0.0068; the normalised cell viability under setting [6] was 1.007 ± 0.0058.
On to `Cc1cccc(-c2[nH]c(C(C)(C)C)nc2-c2ccc3nccnc3c2)n1`, for which the normalised cell viability reads like this: under setting [1], 0.9913 ± 0.0038; under setting [2], 0.836 ± 0.017; under setting [3], 0.9853 ± 0.0042; under setting [4], 0.969 ± 0.04; under setting [5], 0.9847 ± 0.0011; under setting [6], 0.83 ± 0.015.
As to `Cc1ccccc1/C=C/C1=NCCN1` [Metrazoline oxalate], the normalised cell viability under setting [1] is 0.9993 ± 0.0011; the normalised cell viability under setting [2] is 1.002 ± 0.0072; the normalised cell viability under setting [3] was 1.01; the normalised cell viability under setting [4] was found to be 0.987 ± 0.017; the normalised cell viability under setting [5] came to 0.995 ± 0.007; the normalised cell viability under setting [6] amounted to 1.002 ± 0.0076.
For the molecule `NC1(c2ccc(-c3nc4ccn5c(=O)[nH]nc5c4cc3-c3ccccc3)cc2)CCC1` [MK-2206 dihydrochloride], the normalised cell viability under setting [1] was determined as 0.74 ± 0.029; the normalised cell viability under setting [2] came out at 0.54 ± 0.016; the normalised cell viability under setting [3] came out at 0.759 ± 0.025; the normalised cell viability under setting [4] was found to be 0.663 ± 0.041; the normalised cell viability under setting [5] is 0.932 ± 0.0095; the normalised cell viability under setting [6] was 0.669 ± 0.018.
As for `O=C(O)Cc1ccccc1Nc1c(Cl)cccc1Cl` [Diclofenac sodium], the normalised cell viability under setting [1] worked out at 1.006 ± 0.0069; the normalised cell viability under setting [2] came to 0.989 ± 0.019; the normalised cell viability under setting [3] stood at 1.01 ± 0.011; the normalised cell viability under setting [4] came to 0.982 ± 0.017; the normalised cell viability under setting [5] was determined as 1.007 ± 0.0058; the normalised cell viability under setting [6] was determined as 1.007 ± 0.0058.
For the molecule `Cc1c(NC(=O)c2ccc(C(C)(C)C)cc2)cccc1-c1cn(C)c(=O)c(Nc2ccc(C(=O)N3CCOCC3)cc2)n1`, the normalised cell viability runs as follows: under setting [1], 1.017 ± 0.0058; under setting [2], 1.03 ± 0.032; under setting [3], 1.007 ± 0.0058; under setting [4], 0.987 ± 0.022; under setting [5], 1 ± 0.0087; under setting [6], 1.006 ± 0.0063.
Turning to `O=c1[nH]cc(F)c(=O)[nH]1` [5-Fluorouracil], the normalised cell viability is, setting by setting: under setting [1], 0.98 ± 0.002; under setting [2], 0.766 ± 0.0085; under setting [3], 0.981 ± 0.012; under setting [4], 0.984 ± 0.015; under setting [5], 0.9837 ± 0.0084; under setting [6], 0.729 ± 0.03.
With `O=c1[nH]cc(F)c(=O)[nH]1` [5-Fluorouracil; Fluorouracil], the normalised cell viability was found to be 1.043 ± 0.0058 under setting [1]; 0.706 ± 0.037 under setting [2]; 1.01 ± 0.015 under setting [3]; 0.838 ± 0.011 under setting [4]; 0.971 ± 0.0044 under setting [5]; 0.522 ± 0.032 under setting [6].
For the molecule `O=c1ncn2nc(Sc3ccc(F)cc3F)ccc2c1-c1c(Cl)cccc1Cl`, the normalised cell viability was 0.923 ± 0.033 under setting [1]; 0.893 ± 0.043 under setting [2]; 0.935 ± 0.008 under setting [3]; 0.948 ± 0.011 under setting [4]; 1 under setting [5]; 1 ± 0.013 under setting [6].
Regarding `CC(C)Cc1ccc([C@H](C)C(=O)O)cc1` [S(+)-Ibuprofen], the normalised cell viability is, setting by setting: under setting [1], 0.998 ± 0.011; under setting [2], 1.01 ± 0.013; under setting [3], 1.01 ± 0.014; under setting [4], 1.04 ± 0.097; under setting [5], 0.982 ± 0.0089; under setting [6], 0.987 ± 0.012.
